Laboratory results published in PubChem BioAssay (Tox21).
“And” between values parts separate entries of the source, which are not always exact repeats. Identical values can stand only once. This list was built around the results that the source calls inconclusive (neither active nor inactive); the mix of calls is not that of the screen. For part of these data: Where the call is inconclusive, the potency comes from a doubtful curve fit. The source holds several records for some structures; these can differ, active in one and inactive in another. The source made the active and inactive calls. Unless noted, calls come from the whole dose curve; as a rule, active = well fitted curve in the direction sought with a large enough effect in the repeat runs; inconclusive = weak or mixed curves; inactive = no such curve, though single readings can be large; an effect the other way counts as inactive or inconclusive.

Tests used:
[1] = qHTS assay to identify small molecule agonists of H2AX (AID 1224845; active = well fitted activation curve with a large enough effect in the signal ratio in the repeat runs, not every such curve was filed as active; inconclusive = weak or mixed curves; the % refers to the signal ratio; for activation (H2AX phosphorylation): % is set by controls: 0 for no effect and ±100 for the full control effect); conditions: CHO-K1 phospho-H2AX Ser139 HTRF, 3 h; activation (H2AX phosphorylation): at 154 µM (top of the series) unless noted
How it was run: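 Phospho-H2AX Ser139 measured by HTRF (ex 320 nm; em 665 and 620 nm) after 24 hr antibody incubation. Compounds, 15 concentrations, 0.76% DMSO, were applied to CHO-K1 cells for 3hr at 37C before lysis.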

[2] = qHTS assay to identify small molecule agonists of the hypoxia (HIF-1) signaling pathway (AID 1224846; active = well fitted activation curve with a large enough effect in the signal ratio in the repeat runs, not every such curve was filed as active; inconclusive = weak or mixed curves; the % refers to the signal ratio); conditions: HRE-bla ME-180 cells, beta-lactamase ratio, 17 h; activation: at 76.8 µM (top of the series) unless noted
How it was run: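 Compounds added to ME-180 cells carrying hypoxia-response-element beta-lactamase reporter (0.5% dialyzed FBS, 5 h preplating), 17 h at 37C; agonist activity detected by CCF4-AM B/G FRET read-out.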

[3] = qHTS assay to identify small molecule agonists of H2AX - cell viability counter screen (AID 1224847; calls by dose curve; note: nearly all actives have a fitted effect of over 30% in size)
How it was run: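 Quantitative HTS viability measurement: CHO-K1 wild-type cells in serum (10% FBS) medium, short 3 hr drug exposure at 37C with 0.76% DMSO, CellTiter-Glo luminescent detection.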

[4] = qHTS RealTime-Glo MT Cell Viability Assay in HepG2 cells - 24 hour (AID 1224867); note: nearly all actives have a fitted effect of over 50% in size
How it was run: (§1)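 Viability was tracked continuously by NanoLuc luminescence from prosubstrate reduced by living HepG2 cells, at successive time points over 40 h of compound exposure. Cells with reagent were preincubated 5 h at 37 °C before compound addition.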

[5] = A CellTox Green Cytotoxicity Assay to monitor cytotoxicity in HEK293 cells - 40 hour (AID 1224871); note: nearly all actives have a fitted effect of over 45% in size
How it was run: (§2)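 Fluorescence from a DNA-binding dye excluded by viable cells was measured repeatedly in the same HEK293 wells (600 cells/well) during continuous compound exposure at 37 C. Each assay gives one read point: 0, 8, 16, 24, 32 or 40 h.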

[6] = qHTS RealTime-Glo MT Cell Viability Assay in HEK293 cells - 40 hour (AID 1224874); conditions: RealTime-Glo luminescence; max response: stronger effect = lower value; note: nearly all actives have a fitted effect of over 50% in size
How it was run: (§3)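 Luminescence, which tracks viable cell number through reduction of the prosubstrate to a NanoLuc substrate, was read over continuous 37 C culture. Cells (600/well) were premixed with reagent and rested 5 h before 23 nL of compound in DMSO was pinned.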

[7] = A CellTox Green Cytotoxicity Assay to monitor cytotoxicity in HEK293 cells - 24 hour (AID 1224875); note: nearly all actives have a fitted effect of over 45% in size
How it was run: as §2

[8] = qHTS RealTime-Glo MT Cell Viability Assay in HepG2 cells - 32 hour (AID 1224877); note: nearly all actives have a fitted effect of over 55% in size
How it was run: as §1

[9] = A CellTox Green Cytotoxicity Assay to monitor cytotoxicity in HepG2 cells - 24 hour (AID 1224878); note: nearly all actives have a fitted effect of over 45% in size
How it was run: (§4)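 Real-time cytotoxicity: fluorescence of a cell-impermeant cyanine dye binding DNA of dead HepG2 cells, measured repeatedly (0–40 h) during compound exposure at 37 C. Cells seeded 600/well with reagent, dosed after 5 h.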

[10] = A CellTox Green Cytotoxicity Assay to monitor cytotoxicity in HEK293 cells - 32 hour (AID 1224881); note: nearly all actives have a fitted effect of over 40% in size
How it was run: as §2

[11] = qHTS RealTime-Glo MT Cell Viability Assay in HepG2 cells - 40 hour (AID 1224870); note: nearly all actives have a fitted effect of over 50% in size
How it was run: (§5)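 Real-time viability: cells seeded at 600 per well together with NanoLuc and cell-permeant prosubstrate, compounds added after 5 h incubation. Luminescence tracked at 0, 8, 16, 24, 32 and 40 h of exposure.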

[12] = qHTS RealTime-Glo MT Cell Viability Assay in HEK293 cells - 0 hour (AID 1224880); note: nearly all actives have a fitted effect of over 45% in size
How it was run: as §3

[13] = qHTS RealTime-Glo MT Cell Viability Assay in HEK293 cells - 32 hour (AID 1224868); note: nearly all actives have a fitted effect of over 50% in size
How it was run: (§6)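 Viability tracked continuously by luminescence as live cells reduce a prosubstrate for NanoLuc; HEK293 cells preincubated 5 h, compound-treated at 37 C, and read at 0, 8, 16, 24, 32 and 40 h.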

[14] = qHTS RealTime-Glo MT Cell Viability Assay in HEK293 cells - 16 hour (AID 1224872); note: nearly all actives have a fitted effect of over 50% in size
How it was run: as §6

[15] = qHTS RealTime-Glo MT Cell Viability Assay in HepG2 cells - 8 hour (AID 1224873); note: nearly all actives have a fitted effect of over 55% in size
How it was run: as §5

[16] = A CellTox Green Cytotoxicity Assay to monitor cytotoxicity in HepG2 cells - 16 hour (AID 1224876); note: nearly all actives have a fitted effect of over 45% in size
How it was run: as §4

[17] = qHTS assay to identify small molecule antagonists of the estrogen related receptor (ERR) signaling pathway from Tox21 library (AID 1224848); note: nearly all actives have a fitted effect of over 50% in size
How it was run: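 ERR cell line, 2,000 cells/well. 6 h settle, then compound (DMSO) added; 18 h at 37 C; ONE-Glo luminescence after 30 min RT.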

[18] = A CellTox Green Cytotoxicity Assay to monitor cytotoxicity in HepG2 cells - 40 hour (AID 1224879); note: nearly all actives have a fitted effect of over 40% in size
How it was run: as §4
Potency is the fitted concentration of half-maximal effect; tags give direction and shape of the fitted curve or compound fluorescence and quenching.

In the case of CCC(C)(C)c1cc(O)c(C(C)(C)CC)cc1O, the Potency [1] is reported as inconclusive: 101 µM [activator], the Potency [2] is reported as inconclusive: 54.9 µM [single point] and the Potency [3] is reported as inconclusive: 127 µM [cytotoxic]. The Potency [4] was inconclusive: 49 µM [falling, single point], the Potency [5] was inconclusive: 54.9 µM [activator, single point] and the Potency [6] was active: 34.7 µM. For the same compound, the Potency [7] was inconclusive: 54.9 µM [activator, single point], the Potency [8] was inconclusive: 54.9 µM [cytotoxic, partial curve, poor fit] and the Potency [9] was inconclusive: 43.6 µM [activator, partial curve]. For the same compound, the Potency [10] was inconclusive: 54.9 µM [activator, single point].

With Cc1cc(O)c2ccccc2c1O the Potency [1] was inconclusive: 49.2 µM [falling, partial curve, poor fit], the Potency [2] was inconclusive: 13.4 µM [full curve] and the Potency [3] was active: 5.52 µM. The Potency [4] was active: 13.4 µM, the Potency [11] was active: 13.4 µM and the Potency [6] was active: 8.49 µM. The Potency [12] was inconclusive: 8.49 µM [falling, full curve].

For CC(C)c1ccc(S(=O)(=O)O)cc1, the Potency [1] was “inactive”.

In the case of C=C(c1ccc(C(=O)O)cc1)c1cc2c(cc1C)C(C)(C)CCC2(C)C, the Potency [1] is reported as active: 89.8 µM, the activation (H2AX phosphorylation) [1] is reported as inconclusive: 12% [at 70.9 µM] and the Potency [4] is reported as inconclusive: 54.9 µM [falling, single point]. The Potency [13] was inconclusive: 24.5 µM [cytotoxic, partial curve], the Potency [14] was inconclusive: 38.9 µM [cytotoxic, partial curve] and the Potency [15] was inconclusive: 43.6 µM [falling, partial curve, poor fit]. For the same compound, the Potency [6] was inconclusive: 24.5 µM [cytotoxic, partial curve] and inconclusive: 2.39 µM [cytotoxic, full curve], the Potency [16] was active: 24.5 µM and inconclusive: 26.8 µM [activator, single point] and the Potency [8] was inconclusive: 54.9 µM [cytotoxic, single point]. For the same compound, the Potency [9] was inconclusive: 26.8 µM [activator, partial curve, poor fit] and the Potency [10] was active: 30.9 µM.

In the case of CC[C@@]1(O)C(=O)OCc2c1cc1n(c2=O)Cc2c-1nc1ccccc1c2/C=N/OC(C)(C)C, the Potency [1] is reported as inconclusive: 87.5 µM [falling, partial curve], the Potency [2] is reported as inconclusive: 26.8 µM [activator] and the Potency [3] is reported as inconclusive: 61.9 µM [cytotoxic, single point]. The Potency [4] was inconclusive: 0.601 µM [falling, full curve], the Potency [13] was active: 0.0239 µM and the Potency [14] was inconclusive: 0.107 µM [cytotoxic, full curve]. The Potency [16] was active: 3.38 µM and the Potency [8] was inconclusive: 1.2 µM [cytotoxic, full curve].

For BrC1CCC(Br)C(Br)CCC(Br)C(Br)CCC1Br (stereo unspecified), the Potency [1] was active: 89.4 µM, the Potency [2] was inconclusive: 38.7 µM [partial curve] and inconclusive: 52.2 µM [single point] and the Potency [3] was active: 79.7 µM and active: 95.6 µM. The Potency [4] was inconclusive: 54.7 µM [falling, single point] and inconclusive: 46.5 µM [falling, single point], the Potency [13] was inconclusive: 61.4 µM [cytotoxic, single point] and the Potency [14] was inconclusive: 61.4 µM [cytotoxic, single point]. The Potency [15] was inconclusive: 38.7 µM [falling, partial curve] and inconclusive: 46.5 µM [falling, partial curve], the Potency [6] was inconclusive: 61.4 µM [cytotoxic, single point] and the Potency [16] was “inactive”.

With Cc1cc2c(C(C)C)c(O)c(O)c(C=O)c2c(O)c1-c1c(C)cc2c(C(C)C)c(O)c(O)c(C=O)c2c1O the Potency [1] was inconclusive: 55.2 µM, the Potency [2] was inconclusive: 19 µM [partial curve] and the Potency [3] was inconclusive: 61.9 µM [cytotoxic, single point]. For the same compound, the Potency [17] was active: 7.5 µM, the Potency [4] was active: 21.3 µM and the Potency [14] was active: 19 µM. For the same compound, the Potency [15] was inconclusive: 23.9 µM [falling, partial curve], the Potency [6] was active: 8.49 µM and the Potency [9] was inconclusive: 26.8 µM [activator, single point]. The Potency [18] was active: 26.8 µM and the Potency [10] was active: 21.3 µM.

For COc1cc(/C=C/C(=O)CC(=O)/C=C/c2ccc(O)c(OC)c2)ccc1O, the Potency [1] was inconclusive: 101 µM, the Potency [2] was inconclusive: 55.3 µM and the Potency [3] was inconclusive: 128 µM [cytotoxic, single point]. For the same compound, the Potency [17] was active: 13.8 µM, the Potency [4] was inconclusive: 49.3 µM [falling, single point] and the Potency [5] was active: 24.7 µM. For the same compound, the Potency [14] was active: 24.7 µM, the Potency [8] was inconclusive: 55.3 µM [cytotoxic, single point] and the Potency [12] was inconclusive: 24.7 µM [falling, full curve].
